Measurements reported in the RNAGym collection of RNA variant scans (doi:10.1101/gad.245936.114).
Variants at the floor of the assay are shown more often than the library holds them.

B1: tRNA (parent)
chain: CUCUCGGUAGCCAAGUUGGUUUAAGGCGCAAGACUUUAAUUUAUCACUACGAAAUCUUGAGAUCGGGCGUUCGACUCGCCCCCGGGAGAUUUUUUCCUCGAGCAA

Variants of: B1
Assay: nonsense suppression (GFP-seq) (ratio to wild type); higher = more function; SUP4oc tRNA, yeast GFP reporter sort-seq
How it was run: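 Nonsense suppression (GFPSEQ) is the median GFP/RFP ratio of each sorting bin, weighted by the variant's estimated share of cells in that bin and expressed relative to the unmutated parent tRNA. Yeast strains carried genome-integrated variants of an ochre-suppressor tRNA from a library with ~3% random mutations, plus a galactose-driven GFP ochre reporter and RFP, and were grown in raffinose/galactose medium containing 80 mg/L adenine. Cells were sorted into GFP/RFP bins, each bin was Illumina-sequenced (phred ≥30), and variants were kept only with ≥100 reads and ≥30 cells.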

Question: Which nonsense suppression does the source give for A13C U35G U57C G65C here?
Answer: Its nonsense suppression is no more than 0.026.

Question: With C12U C27G U35G as the variant, how does the nonsense suppression read?
Answer: Its nonsense suppression is no more than 0.026.

Question: Which nonsense suppression does the source give for C12U C64A here?
Answer: Its nonsense suppression is no more than 0.026.

Question: With C12U C64U as the variant, how does the nonsense suppression read?
Answer: Its nonsense suppression is no more than 0.026.

Question: With A13C G59A U76A as the variant, how does the nonsense suppression read?
Answer: Its nonsense suppression is no more than 0.026.

Question: Which nonsense suppression does the source give for C12G A31U here?
Answer: The nonsense suppression was no more than 0.026.

Question: Which nonsense suppression does the source give for A13C U58A G67U G78A here?
Answer: Its nonsense suppression is no more than 0.026.

Question: For C12U G65C U71G C75U G78A, which nonsense suppression is on record?
Answer: Its nonsense suppression is no more than 0.026.

Question: For C12G G28C C29G C79G A87U, which nonsense suppression is on record?
Answer: Its nonsense suppression is no more than 0.026.

Question: Which nonsense suppression does the source give for C12A C27G C77A A87C here?
Answer: Its nonsense suppression is no more than 0.026.

Question: Which nonsense suppression does the source give for C12U G66C G88C here?
Answer: The nonsense suppression was no more than 0.026.

Question: With C12U U17A C64G as the variant, how does the nonsense suppression read?
Answer: Its nonsense suppression is no more than 0.026.

Question: With A13C U17A A31G as the variant, how does the nonsense suppression read?
Answer: The nonsense suppression was 0.849.

Question: For C12U G19U U57C C77A A89U, which nonsense suppression is on record?
Answer: The nonsense suppression was no more than 0.026.

Question: Which nonsense suppression does the source give for C12A A74G here?
Answer: Its nonsense suppression is no more than 0.026.

Question: With A13C G18U as the variant, how does the nonsense suppression read?
Answer: Its nonsense suppression is no more than 0.026.

Question: Which nonsense suppression does the source give for C12G A31U A33U U58G here?
Answer: Its nonsense suppression is no more than 0.026.

Question: With C12A A33G C68A A74C as the variant, how does the nonsense suppression read?
Answer: The nonsense suppression was no more than 0.026.

Question: For C12A G15U, which nonsense suppression is on record?
Answer: Its nonsense suppression is no more than 0.026.

Question: For C12A G15C, which nonsense suppression is on record?
Answer: The nonsense suppression was no more than 0.026.

Question: Which nonsense suppression does the source give for C11U U76G here?
Answer: The nonsense suppression was no more than 0.026.

Question: Which nonsense suppression does the source give for C12A G15U C34G G65U here?
Answer: The nonsense suppression was no more than 0.026.

Question: With A13G A24C as the variant, how does the nonsense suppression read?
Answer: Its nonsense suppression is no more than 0.026.

Question: For C12A G59A C81U, which nonsense suppression is on record?
Answer: Its nonsense suppression is no more than 0.026.

Question: For C12G U20C C27G U58G G59A, which nonsense suppression is on record?
Answer: The nonsense suppression was no more than 0.026.

Question: With C12G A13G U71C as the variant, how does the nonsense suppression read?
Answer: Its nonsense suppression is no more than 0.026.

Question: Which nonsense suppression does the source give for C12U G85C here?
Answer: The nonsense suppression was 0.111.

Question: With C12U G85U as the variant, how does the nonsense suppression read?
Answer: Its nonsense suppression is 0.0919.

Question: For A13C C64A, which nonsense suppression is on record?
Answer: Its nonsense suppression is no more than 0.026.

Question: With C12A C34U U70G C75U as the variant, how does the nonsense suppression read?
Answer: The nonsense suppression was no more than 0.026.

Question: With C12G A14U A31G G67A C77G as the variant, how does the nonsense suppression read?
Answer: The nonsense suppression was no more than 0.026.

Question: With C12A A30G as the variant, how does the nonsense suppression read?
Answer: The nonsense suppression was no more than 0.026.

Question: For C12A A30U, which nonsense suppression is on record?
Answer: The nonsense suppression was no more than 0.026.

Question: For C12G A31U U55C C80G, which nonsense suppression is on record?
Answer: Its nonsense suppression is no more than 0.026.

Question: For C12U G15C G61A, which nonsense suppression is on record?
Answer: The nonsense suppression was no more than 0.026.

Question: Which nonsense suppression does the source give for A13C C80U here?
Answer: The nonsense suppression was 0.179.

Question: Which nonsense suppression does the source give for C12U C29G U35A here?
Answer: The nonsense suppression was no more than 0.026.

Question: With C12G A14U as the variant, how does the nonsense suppression read?
Answer: Its nonsense suppression is no more than 0.026.

Question: Which nonsense suppression does the source give for C12U U21A A31G here?
Answer: The nonsense suppression was 0.214.

Question: With C12A G32A U76C C80G as the variant, how does the nonsense suppression read?
Answer: Its nonsense suppression is no more than 0.026.

Question: For A13C U17G, which nonsense suppression is on record?
Answer: The nonsense suppression was 0.958.

Question: With C12U U55C U58G as the variant, how does the nonsense suppression read?
Answer: The nonsense suppression was no more than 0.026.

Question: For A13C G18U G26A A31U, which nonsense suppression is on record?
Answer: The nonsense suppression was no more than 0.026.

Question: With C12A G67A G88C as the variant, how does the nonsense suppression read?
Answer: Its nonsense suppression is no more than 0.026.

Question: Which nonsense suppression does the source give for C12A G61C C79U here?
Answer: The nonsense suppression was no more than 0.026.

Question: Which nonsense suppression does the source give for A13C U71A C72U U76C A89C here?
Answer: The nonsense suppression was no more than 0.026.

Question: With C12U G19C A23C G32U as the variant, how does the nonsense suppression read?
Answer: Its nonsense suppression is no more than 0.026.

Question: Which nonsense suppression does the source give for C12A A14U here?
Answer: The nonsense suppression was no more than 0.026.

Question: Which nonsense suppression does the source give for C12A A14C here?
Answer: Its nonsense suppression is no more than 0.026.

Question: With C12A G19U A60U as the variant, how does the nonsense suppression read?
Answer: Its nonsense suppression is no more than 0.026.

Question: With C12U A23U C56A G84C as the variant, how does the nonsense suppression read?
Answer: The nonsense suppression was no more than 0.026.

Question: Which nonsense suppression does the source give for C12U G19A here?
Answer: The nonsense suppression was no more than 0.026.

Question: For C12U A13U C64U G67U G78A G84U, which nonsense suppression is on record?
Answer: Its nonsense suppression is no more than 0.026.

Question: Which nonsense suppression does the source give for A13C A89U here?
Answer: The nonsense suppression was no more than 0.026.

Question: Which nonsense suppression does the source give for A13C A89G here?
Answer: Its nonsense suppression is 0.122.

Question: With C12G A14C A24G G32A U57A as the variant, how does the nonsense suppression read?
Answer: The nonsense suppression was no more than 0.026.

Question: With A13C G32C U55G G85U as the variant, how does the nonsense suppression read?
Answer: The nonsense suppression was no more than 0.026.

Question: With A13C A24U G66U as the variant, how does the nonsense suppression read?
Answer: Its nonsense suppression is no more than 0.026.

Question: With C12U G19A C56G U71A G78C as the variant, how does the nonsense suppression read?
Answer: The nonsense suppression was no more than 0.026.

Question: For C12G G18C A87C A89C, which nonsense suppression is on record?
Answer: The nonsense suppression was no more than 0.026.

Question: Which nonsense suppression does the source give for C12A A14C U21G here?
Answer: Its nonsense suppression is no more than 0.026.

Question: With C12U U55C as the variant, how does the nonsense suppression read?
Answer: The nonsense suppression was 0.0665.

Question: For C12A U63G, which nonsense suppression is on record?
Answer: Its nonsense suppression is no more than 0.026.

Question: For C12U G78U G84C, which nonsense suppression is on record?
Answer: Its nonsense suppression is no more than 0.026.

Question: Which nonsense suppression does the source give for C12G U16C U22A C77U here?
Answer: Its nonsense suppression is no more than 0.026.

Question: Which nonsense suppression does the source give for C12G C64G C77G here?
Answer: Its nonsense suppression is no more than 0.026.

Question: Which nonsense suppression does the source give for A13C U70C here?
Answer: Its nonsense suppression is no more than 0.026.

Question: For A13C G66C A74G C83U, which nonsense suppression is on record?
Answer: The nonsense suppression was no more than 0.026.

Question: Which nonsense suppression does the source give for C12A U35A here?
Answer: The nonsense suppression was no more than 0.026.

Question: For C12G G25C C27G U63A, which nonsense suppression is on record?
Answer: The nonsense suppression was no more than 0.026.

Question: Which nonsense suppression does the source give for C12U G32U C77A C79G here?
Answer: The nonsense suppression was no more than 0.026.

Question: Which nonsense suppression does the source give for A13C G18A A30C C56A C72A G78A here?
Answer: The nonsense suppression was no more than 0.026.

Question: For C12U A14U U22A G59U, which nonsense suppression is on record?
Answer: The nonsense suppression was no more than 0.026.

Question: For C12A A23G C83A, which nonsense suppression is on record?
Answer: Its nonsense suppression is no more than 0.026.

Question: For C12G C34A, which nonsense suppression is on record?
Answer: The nonsense suppression was no more than 0.026.

Question: For C12U U63C G66C, which nonsense suppression is on record?
Answer: The nonsense suppression was no more than 0.026.

Question: For C12A A13C G18U U63A, which nonsense suppression is on record?
Answer: Its nonsense suppression is no more than 0.026.

Question: For C12A A54G, which nonsense suppression is on record?
Answer: The nonsense suppression was no more than 0.026.

Question: Which nonsense suppression does the source give for C12U G15C G18U G26A here?
Answer: Its nonsense suppression is no more than 0.026.

Question: With C12U A30U G61U as the variant, how does the nonsense suppression read?
Answer: Its nonsense suppression is no more than 0.026.

Question: With A13C C27U as the variant, how does the nonsense suppression read?
Answer: Its nonsense suppression is 0.0494.

Question: Which nonsense suppression does the source give for C12A A24C here?
Answer: The nonsense suppression was 0.035.

Question: For C12A U17A G18C U21G G26U U63C G88C, which nonsense suppression is on record?
Answer: Its nonsense suppression is no more than 0.026.
